Assay results taken from PubChem BioAssay AID1508624 (National Center for Advancing Translational Sciences (NCATS), 2021).
Among all 48,000 compounds or so, about 120 (0.25%) were called active. Another 4% or so got no clear call; they are omitted. The call rests on the fitted dose curve; in most records, active means well fitted activation curve with a large enough effect; inconclusive means small, poorly fitted or top-dose-only effect, or another doubt; inactive means no such curve, though single readings can be large or run the other way. The list shows a part of the results.

test: Primary qHTS for Identification of Small Molecule Activators of Huntingtin-Antisense Promoter Activity; settings: HEK293 HTT-AS promoter firefly luciferase reporter (activity 0% = vehicle and -100% = no light), 24 h; series mostly up to 57.5 µM; activity change, positive = activation: at the top concentration; further: nearly all actives have a fitted effect of over 55% in size
In short: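 HEK293 luciferase promoter-reporter cells (2,500/well) plated 24 h, then compounds added at up to 57.5 uM final for 24 h at 37 °C. Firefly luminescence by Dual-Glo, normalized to vehicle (0%) and zero RLU (-100%).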

Activity change, positive = activation, inactive:
CCOC(=O)c1cc(OC(=O)c2ccc(C)cc2)n(-c2ccccc2)n1 -9.08%
COc1ccc(NC(=O)c2ccco2)cc1NC(=O)COc1ccccc1 -7.39%
CCOC(=O)c1ccc(NC(=O)c2c(NCc3cccs3)sc3c2CCCC3)cc1 -17.2%
CCc1ccc(S(=O)(=O)c2cn(C)c3cc(N4CCC(C)CC4)c(F)cc3c2=O)cc1 -10.1%
Cn1c(=O)n(C)c2cc(N3CCOCC3)c(NC(=O)c3ccccc3Br)cc21 -12%
COc1ccc(CNC(=O)CN2C(=O)CSc3ccc(S(=O)(=O)N4CCOCC4)cc32)c(OC)c1 -7.83%
COc1cccc(CNC(=O)c2cc(S(=O)(=O)N3CCCCC3)cn2C)c1 -14%
CC(=O)Nc1ccc(NC(=O)CSc2nc3ccccc3nc2N2CCC(C)CC2)cc1 -12.9%
O=C(c1ccc(C=Cc2n[nH]c3ccccc23)cc1)N1CCNCC1 27.7%
Cc1c(C(=O)N2CCCCCC2)c(S(=O)(=O)NCc2ccc(Br)cc2)c(C)n1C -21.3%
COC(=O)C1=C(C)NC(C)=C(C(=O)OC)C1c1ccccc1[N+](=O)[O-] 28.4%
Cc1ccc(-c2nc3ccccn3c2Nc2ccccc2C)s1 -13.2%
CCOc1ccc(CNC(=O)c2ccc3nc(C(C)C)oc3c2)cc1 7.16%
COC(=O)c1ccc(NC(=O)NCCn2nnc3cc(S(=O)(=O)N(C)C)ccc32)cc1 -6.56%
CCOc1ccccc1C(=O)Nc1c(C(=O)Nc2ccc(F)cc2)oc2ccccc12 -38.1%
Cn1c(=O)c(=O)n(C)c2cc(S(=O)(=O)CCC(=O)Nc3ccc(F)cc3)ccc21 -5.41%
CCOc1ccc(C2Nc3c(C)cccc3-c3cc(C)nn32)cc1 (configuration not stated) -26.1%
Cc1oc2ncnc(N3CCOCC3)c2c1C(=O)N(Cc1ccccc1)C(C)C -10.9%
COc1ccc(S(=O)(=O)NCC(c2ccco2)S(=O)(=O)c2cccs2)cc1C (configuration not stated) -14.1%
CC1CCC(NC(=O)c2cc3c(Cl)nc4ccccc4c3s2)CC1 (configuration not stated) -8.27%
O=C(Cn1ccc2cc(S(=O)(=O)N3CCCCC3)ccc21)NCc1cccc(Cl)c1 -40.8%
CC(=O)Nc1ccccc1-c1nc2ccccc2n(Cc2cccc(Br)c2)c1=O -8.78%
CCOc1ccccc1NC(=O)Cn1c(=O)n(Cc2ccccc2)c(=O)c2cccnc21 -13%
Cc1cc(C)c(NC(=O)Cn2nnc(-c3ccccc3)n2)c(C)c1 -9.76%
Cc1cc(S(=O)(=O)NCC(c2ccco2)S(=O)(=O)c2ccccc2)ccc1F (configuration not stated) -9.51%
CCOC(=O)C(C)NC(=O)C1CCN(c2ncnc3c2nc2n3CCCCC2)CC1 (configuration not stated) 4.48%
O=C(CN1CCCN(Cc2ccccc2Cl)S1(=O)=O)NCc1ccccc1 -11.5%
